This assay has as its target SARS-CoV-2 NSP14 (Severe acute respiratory syndrome coronavirus 2, UniProt P0DTD1). As to the kind of experiment: biochemical.
The mark [1] stands for this setting: LUM % inhibition, read-out: SARS-CoV-2 NSP14 inhibition: IC50.
The mark [2] stands for this setting: LUM % inhibition, read-out: SARS-CoV-2 NSP14 inhibition: Maximum response.
The mark [3] stands for this setting: fit of concentration-response curve.
Where [4] appears, read: Hill slope of the concentration-response fit.
Setting [5] is: maximum response, LUM % inhibition, read-out: SARS-CoV-2 NSP14 inhibition: Maximum response (%).
[6] abbreviates: read-out: SARS-CoV-2 NSP14 inhibition: IC50.
Where [7] appears, read: TDI-015051 series, retrospective VS set, biochemical MTase assay, read-out: Merged IC50.

Where two headings read alike, the source gives them in different places.

`CCN(CC)S(=O)(=O)c1cccc(NC(=O)CNc2cccc(-c3ccnc(C)n3)c2)c1` [RU-0833918]: the IC50 under setting [1] is above 125 µM. For the same compound, the Emax under setting [2] was 22.8%. In addition, the “SARS-CoV-2 NSP14 inhibition: Hill slope” value under setting [3] came to 2.12.

On to `Cn1nc(C(=O)N2CC3CCC(CNC(=O)c4n[nH]c5ccccc45)C3C2)cc1CO` (centres unmarked) [RU-0834135], for which, under setting [1], the IC50 is above 125 µM. Under setting [2], the Emax turned out to be 11%. Further, under setting [3], the “SARS-CoV-2 NSP14 inhibition: Hill slope” value turned out to be 76.2.

On to `Cc1cccc(S(=O)(=O)c2ccc(=O)n(CC(=O)NCCc3ccc(Cl)cc3)n2)c1` [RU-0833885], for which the IC50 under setting [1] was 13.9 µM. Under setting [2], the Emax is 78.9%. The “SARS-CoV-2 NSP14 inhibition: Hill slope” value under setting [3] is given as 2.97.

In the case of `O=C(NCC(O)CCNC(=O)c1ncc2ccccn12)c1ccc2[nH]ncc2c1` (centres unmarked) [RU-0834119], the IC50 under setting [1] was above 125 µM. Further, the Emax under setting [2] was found to be 12%. For the same compound, the “SARS-CoV-2 NSP14 inhibition: Hill slope” value under setting [3] was found to be 13.9.

With `O=C(NC[C@@H]1CCC[C@H](CNC(=O)C2CCCc3ccnn32)C1)c1ccc2[nH]ncc2c1` (some centres unmarked) [RU-0834156], under setting [1], the IC50 is above 125 µM. Moreover, the Emax under setting [2] was found to be 12.9%. Also, the “SARS-CoV-2 NSP14 inhibition: Hill slope” value under setting [3] came out at 23.9.

Regarding `Cc1cc(C(=O)NCC2CCN2C(=O)c2cc(-c3cccc(F)c3)no2)c(C)cn1` (centres unmarked) [RU-0833939], the IC50 under setting [1] is above 125 µM. The Emax under setting [2] turned out to be 9.26%. Under setting [3], the “SARS-CoV-2 NSP14 inhibition: Hill slope” value came out at 2.25.

As for `COc1cccnc1C(=O)NC[C@H]1C[C@H](NC(=O)c2cccn3nccc23)C1(C)C` [RU-0833663], under setting [4], the “SARS-CoV-2 NSP14 inhibition: Hill slope” value was determined as 11. For the same compound, the Emax under setting [5] worked out at 4.81%. The IC50 under setting [6] was above 62.5 µM.

With `C[C@H](NC(=O)c1cccc(S(=O)(=O)N2CCCC2)c1)c1nnc2ccccn12` [RU-0833630], the “SARS-CoV-2 NSP14 inhibition: Hill slope” value under setting [4] is listed as 0.819. Moreover, the Emax under setting [5] was found to be 2.9%. Also, the IC50 under setting [6] was above 62.5 µM.

On to `CCc1cc(F)ccc1C(=O)NCCc1ccc(CNC(=O)c2ccn3nccc3c2)cc1` [RU-0834194], for which the IC50 under setting [1] was determined as 10.4 µM. Further, the Emax under setting [2] was 61.1%. Also, under setting [3], the “SARS-CoV-2 NSP14 inhibition: Hill slope” value was determined as 1.08.

As for `Cc1cccc(CNC(=O)c2cn(CC3CC(=O)N(Cc4ccccc4)C3)nn2)c1` (centres unmarked) [RU-0833892], under setting [1], the IC50 was above 125 µM. For the same compound, under setting [2], the Emax worked out at 9.38%. Also, the “SARS-CoV-2 NSP14 inhibition: Hill slope” value under setting [3] amounted to 48.7.

On to `Cn1nccc1CNC(=O)c1ccc(Cl)c(S(=O)(=O)c2ccc3[nH]ncc3c2)c1` [TDI-016684, Cn1nccc1CNC(=O)c1ccc(Cl)c(S(=O)(=O)c2ccc3[nH]ncc3c2)c1], for which, under setting [7], the half-inhibitory concentration (IC50) was 0.073 µM.

On to `COc1ccccc1NS(=O)(=O)c1cc(C(=O)NCCc2ccc(OC)c(OC)c2)ccc1C` [RU-0833932], for which the IC50 under setting [1] is above 125 µM. Moreover, the Emax under setting [2] is 31.5%. For the same compound, under setting [3], the “SARS-CoV-2 NSP14 inhibition: Hill slope” value was determined as 0.596.

Take `O=C(NCCC1CN(C(=O)[C@H]2CCCC[C@H]2F)C1)c1c(F)cc(O)cc1F` [RU-0833677]: the “SARS-CoV-2 NSP14 inhibition: Hill slope” value under setting [4] stood at 0.24. In addition, the Emax under setting [5] was 2.48%. Further, the IC50 under setting [6] was above 62.5 µM.

Take `Cc1ccccc1CC(=O)NCc1cccc(CNC(=O)c2ccc3cncn3c2C)c1` [RU-0834112]: the IC50 under setting [1] worked out at 103 µM. For the same compound, the Emax under setting [2] came to 43.5%. In addition, the “SARS-CoV-2 NSP14 inhibition: Hill slope” value under setting [3] was 0.813.

Consider `CN(c1ccccc1)S(=O)(=O)c1cccc(NC(=O)Cn2cc(Br)ccc2=O)c1` [RU-0833923], for which the IC50 under setting [1] was above 125 µM. Also, the Emax under setting [2] was determined as 11.1%. Also, the “SARS-CoV-2 NSP14 inhibition: Hill slope” value under setting [3] came to 20.2.

On to `CC1(CNC(=O)c2ccc3[nH]ncc3c2)CCC(NC(=O)c2ncn3ccccc23)C1` (centres unmarked) [RU-0834149], for which, under setting [1], the IC50 is above 125 µM. In addition, the Emax under setting [2] came out at 14.2%. Moreover, under setting [3], the “SARS-CoV-2 NSP14 inhibition: Hill slope” value is 43.2.

For the compound `O=C(NCc1ccc(C(=O)NC2CC2C2CCCC2)cc1)c1ccc(O)c(F)c1` (centres unmarked) [RU-0834120], the IC50 under setting [1] is above 125 µM. Moreover, the Emax under setting [2] was found to be 15.8%. Under setting [3], the “SARS-CoV-2 NSP14 inhibition: Hill slope” value came to 13.8.

Consider `Cc1nc2ncnn2c(C)c1CC(=O)NCc1ccc(N2CCCC2=O)cc1` [RU-0833627], for which the “SARS-CoV-2 NSP14 inhibition: Hill slope” value under setting [4] worked out at 196. Besides, the Emax under setting [5] was -0.927%. Besides, the IC50 under setting [6] was above 62.5 µM.

For `Cc1cccc(C(O)C(=O)NC[C@H]2CCC[C@@H](NC(=O)c3cc(C)c4[nH]ncc4c3)C2)c1` (some centres unmarked) [RU-0834167], under setting [1], the IC50 was above 125 µM. Besides, the Emax under setting [2] worked out at 29.4%. The “SARS-CoV-2 NSP14 inhibition: Hill slope” value under setting [3] was determined as 0.446.

Take `O=C(NCCC12CCC1CN(C(=O)c1cccc(CO)c1)C2)c1n[nH]c2ccccc12` (centres unmarked) [RU-0834145]: the IC50 under setting [1] was above 125 µM. For the same compound, the Emax under setting [2] came out at 11%. Moreover, the “SARS-CoV-2 NSP14 inhibition: Hill slope” value under setting [3] is given as 20.5.

For `O=C(CCn1cnc2ccccc2c1=O)NCCn1ccc2ccc(Br)cc21` [RU-0833882], under setting [1], the IC50 is above 125 µM. The Emax under setting [2] came out at 10.6%. For the same compound, under setting [3], the “SARS-CoV-2 NSP14 inhibition: Hill slope” value is recorded as 45.1.

Turning to `O=C(NCCc1ccccc1F)c1ccc(F)c(S(=O)(=O)N2CCCC2)c1` [RU-0833874], the half-inhibitory concentration (IC50) under setting [1] is above 125 µM. Besides, the Emax under setting [2] came out at 15%. Also, the “SARS-CoV-2 NSP14 inhibition: Hill slope” value under setting [3] is recorded as 23.

In the case of `Cc1[nH]c(C(=O)NCc2c(F)ccc3occc23)cc1S(=O)(=O)c1ccc2c(cnn2C)c1` [TDI-015757, Cc1[nH]c(C(=O)NCc2c(F)ccc3occc23)cc1S(=O)(=O)c1ccc2c(cnn2C)c1], under setting [7], the IC50 was 0.0899 µM.

Consider `O=C(NC[C@H](O)CNC(=O)c1ncnc2[nH]ccc12)c1cc(F)cc2ccccc12` [RU-0833682], for which, under setting [4], the “SARS-CoV-2 NSP14 inhibition: Hill slope” value worked out at 0.895. Also, under setting [5], the Emax was 18.7%. In addition, the IC50 under setting [6] is above 62.5 µM.

Turning to `Cn1ccn2ncc(C(=O)NCc3ccc(CNC(=O)c4ccc(O)cc4Cl)cc3)c12` [RU-0834114], the IC50 under setting [1] was 10.6 µM. For the same compound, under setting [2], the Emax is 50.9%. Besides, the “SARS-CoV-2 NSP14 inhibition: Hill slope” value under setting [3] is 1.09.

Turning to `Cc1cc(CC(=O)NCC2CCC3(CN(C(=O)c4ccc5[nH]ncc5c4)C3)O2)ccc1F` (centres unmarked) [RU-0834200], the IC50 under setting [1] turned out to be 13.6 µM. Further, the Emax under setting [2] was determined as 31.7%. Moreover, under setting [3], the “SARS-CoV-2 NSP14 inhibition: Hill slope” value is given as 0.949.

With `Cc1cc(F)cc(CC(=O)NCC2COC(CNC(=O)c3cccc4c3ncn4C)C2)c1` (centres unmarked) [RU-0834117], under setting [1], the IC50 was above 125 µM. Besides, under setting [2], the Emax stood at 10.3%. Besides, the “SARS-CoV-2 NSP14 inhibition: Hill slope” value under setting [3] was 49.4.

In the case of `Cc1nn(C)c(C)c1S(=O)(=O)Nc1cccc(CCc2nc3ccccc3n2C)c1` [RU-0381274], the “SARS-CoV-2 NSP14 inhibition: Hill slope” value under setting [4] is recorded as 35.7. Under setting [5], the Emax is 15.8%. For the same compound, under setting [6], the IC50 was above 125 µM.

Regarding `O=C(NCc1ccc2c(c1)CN(C(=O)C(O)c1cccc(F)c1)C2)c1cc2cn[nH]c2cn1` (centres unmarked) [RU-0834150], under setting [1], the IC50 was above 125 µM. In addition, the Emax under setting [2] was 16.6%. For the same compound, under setting [3], the “SARS-CoV-2 NSP14 inhibition: Hill slope” value was found to be 13.3.

Consider `Cn1c(CNc2cccc(C(=O)NCc3cccc4cccnc34)c2)nnc1-c1ccncn1` [RU-0833656], for which the “SARS-CoV-2 NSP14 inhibition: Hill slope” value under setting [4] came to 1.1. The Emax under setting [5] was 9.23%. Further, under setting [6], the IC50 was above 62.5 µM.

With `O=C(NCc1ccc(CNC(=O)c2n[nH]c3cccnc23)cc1)c1c(F)cc(O)cc1F` [RU-0834171], under setting [1], the IC50 is above 125 µM. Also, the Emax under setting [2] is 34.8%. Besides, the “SARS-CoV-2 NSP14 inhibition: Hill slope” value under setting [3] turned out to be 0.62.

With `Cc1ccn2ncc(C(=O)NCCC3CCC(NC(=O)c4cnc5[nH]ncc5c4)C3)c2c1` (centres unmarked) [RU-0834106], the IC50 under setting [1] amounted to 50.8 µM. For the same compound, the Emax under setting [2] amounted to 55.6%. Further, the “SARS-CoV-2 NSP14 inhibition: Hill slope” value under setting [3] came to 0.958.

For orientation: IC50 means the concentration at which inhibition is half-maximal.

Source of the values: publication PMC12434519 (ACS Medicinal Chemistry Letters, 2025).
